Laboratory results from US20160369264A1 (HOWARD HUGHES MEDICAL INSTITUTE, published 2016).

Target: the molecule itself
Test: self-assembly of fusion trimers; negative-stain TEM of E. coli pellet
Method: Synthetic genes of each fusion were obtained and protein was expressed in Escherichia coli cells using a standard T7 based expression vector (Table 2). The protein expression was verified by sodium dodecyl sulfate polyacrylamide gel electrophoresis (SDS-PAGE) after separation of the soluble and insoluble cell portions. Samples of observed protein in the cellular pellets were analyzed for array formation by negative-stain Transmission Electron Microscopy (TEM). […] It is worth noting that 5/7 of the remaining fusions either shared a similar sequence and unknown but potentially similar structures (2 unpublished binding proteins) or were either the same molecular weight or much larger than the p3Z-42 monomer protein (3 proteins between ˜25-35 kDa).

B1: p3Z-42-Spycatcher fusion (designed binder)
chain: MGAMVDTLSGLSSEQGQSGDMTIEEDS[about 80 residues not shown]GKATKGDAHIGSGSGGMHNNRLQLSRLERVYQSEQAEKLLLAGVMLRDPARFDLRGSLTHGRDVEIDTNVIIEGNVSLGNRVKIGTGCVIKNSAIGDDCEISPYTVVEDAVLAAACTIGPFARLRPGAVLLEGAHVGNFVEMKKAVLGKGSKAGHLTYLGDAAIGDNVNIGAGTITCNYDGANKFTTIIGDDVFVGSDTQLVAPVSVGKGATIAAGTTVTRNVGANALAISRVPQTQKEGWRRPVKKK
notes: Used as a 2D array in E. coli pellet material; also called p3Z-42-SC; p3Z-42-Spycatcher array
binding result: binds
